{"source": "ChEMBL document CHEMBL1132561", "about": "“Identification and characterization of m1 selective muscarinic receptor antagonists1” (J Med Chem, 1999)", "assay_in_all_cases": "biochemical", "assay_type_in_all_cases": "cell-based, CHO", "key": {"[1]": {"molecular_target": "Muscarinic acetylcholine receptor M3 (Homo sapiens, UniProt P20309)", "sequence (P20309 whole entry)": "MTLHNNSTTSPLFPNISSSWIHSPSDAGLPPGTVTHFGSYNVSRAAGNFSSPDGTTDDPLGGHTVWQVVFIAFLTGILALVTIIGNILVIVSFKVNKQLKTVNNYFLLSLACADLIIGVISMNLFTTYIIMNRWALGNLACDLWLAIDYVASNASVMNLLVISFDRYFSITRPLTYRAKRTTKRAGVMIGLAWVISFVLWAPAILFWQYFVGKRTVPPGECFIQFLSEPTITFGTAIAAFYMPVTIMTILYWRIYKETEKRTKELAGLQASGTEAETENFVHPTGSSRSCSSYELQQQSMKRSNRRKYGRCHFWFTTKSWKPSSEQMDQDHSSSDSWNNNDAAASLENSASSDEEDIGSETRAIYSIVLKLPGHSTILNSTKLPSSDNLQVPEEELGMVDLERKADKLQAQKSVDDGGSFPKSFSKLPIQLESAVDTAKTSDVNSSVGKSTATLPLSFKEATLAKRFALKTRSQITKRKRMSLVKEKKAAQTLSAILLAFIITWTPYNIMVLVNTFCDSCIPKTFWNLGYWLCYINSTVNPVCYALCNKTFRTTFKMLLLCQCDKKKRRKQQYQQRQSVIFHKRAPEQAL"}, "[2]": {"molecular_target": "T1, Muscarinic acetylcholine receptor M5 (Homo sapiens, UniProt P08912)", "T1 sequence (P08912 whole entry)": "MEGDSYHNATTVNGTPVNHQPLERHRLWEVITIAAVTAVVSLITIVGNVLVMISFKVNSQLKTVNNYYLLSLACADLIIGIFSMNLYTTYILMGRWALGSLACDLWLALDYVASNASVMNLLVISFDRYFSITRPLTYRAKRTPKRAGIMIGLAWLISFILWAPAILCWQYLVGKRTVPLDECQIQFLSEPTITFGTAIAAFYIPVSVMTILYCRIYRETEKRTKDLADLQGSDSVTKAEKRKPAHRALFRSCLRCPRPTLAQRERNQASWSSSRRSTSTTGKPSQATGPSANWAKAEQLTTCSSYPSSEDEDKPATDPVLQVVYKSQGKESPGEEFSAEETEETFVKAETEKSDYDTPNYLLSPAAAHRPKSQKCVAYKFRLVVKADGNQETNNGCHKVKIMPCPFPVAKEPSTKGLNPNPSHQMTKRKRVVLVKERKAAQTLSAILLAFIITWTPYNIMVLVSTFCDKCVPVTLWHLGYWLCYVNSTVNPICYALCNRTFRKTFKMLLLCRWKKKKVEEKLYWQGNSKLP"}, "[3]": {"molecular_target": "T2, Muscarinic acetylcholine receptor M2 (Homo sapiens, UniProt P08172)", "T2 sequence (P08172 whole entry)": "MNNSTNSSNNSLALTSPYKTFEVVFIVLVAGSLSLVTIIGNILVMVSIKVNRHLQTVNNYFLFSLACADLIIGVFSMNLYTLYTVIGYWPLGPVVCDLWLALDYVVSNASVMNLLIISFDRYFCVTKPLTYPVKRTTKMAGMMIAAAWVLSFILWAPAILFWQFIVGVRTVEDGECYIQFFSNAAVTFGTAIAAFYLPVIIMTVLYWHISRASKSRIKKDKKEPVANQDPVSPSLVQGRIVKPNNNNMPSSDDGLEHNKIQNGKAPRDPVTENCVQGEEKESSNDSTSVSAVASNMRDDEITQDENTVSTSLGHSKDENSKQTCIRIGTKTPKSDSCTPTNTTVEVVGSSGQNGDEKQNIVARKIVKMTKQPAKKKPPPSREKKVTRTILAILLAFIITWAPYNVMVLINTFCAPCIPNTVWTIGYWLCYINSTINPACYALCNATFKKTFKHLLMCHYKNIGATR"}, "[4]": {"molecular_target": "T3, Muscarinic acetylcholine receptor M4 (Homo sapiens, UniProt P08173)", "T3 sequence (P08173 whole entry)": "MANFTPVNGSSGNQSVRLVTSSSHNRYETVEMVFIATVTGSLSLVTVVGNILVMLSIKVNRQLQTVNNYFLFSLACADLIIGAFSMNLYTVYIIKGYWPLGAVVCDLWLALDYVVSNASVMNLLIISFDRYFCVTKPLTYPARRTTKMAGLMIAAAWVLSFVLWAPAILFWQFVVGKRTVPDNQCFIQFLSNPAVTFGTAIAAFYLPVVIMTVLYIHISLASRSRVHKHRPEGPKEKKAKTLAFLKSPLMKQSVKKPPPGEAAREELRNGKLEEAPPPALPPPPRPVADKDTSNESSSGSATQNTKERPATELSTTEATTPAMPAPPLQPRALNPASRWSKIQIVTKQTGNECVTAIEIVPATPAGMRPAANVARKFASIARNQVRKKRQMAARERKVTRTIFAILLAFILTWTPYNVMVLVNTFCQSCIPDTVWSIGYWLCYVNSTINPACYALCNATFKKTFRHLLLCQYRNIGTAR"}}}
{"smiles": "CCN1CC[C@@H](c2ccccc2)[C@@H](C(=O)OC2CCCCC2)C1", "values": [{"measurement": "IC50", "setting": "[1]", "result": 2.55, "unit": "µM"}, {"measurement": "IC50", "setting": "[2]", "result": 1.89, "unit": "µM"}, {"measurement": "IC50", "setting": "[3]", "result": 1.61, "unit": "µM"}, {"measurement": "IC50", "setting": "[4]", "result": 4.25, "unit": "µM"}]}
{"smiles": "CCCOC(=O)C1=C(c2ccccc2)CCN(CC)C1", "values": [{"measurement": "IC50", "setting": "[1]", "result": 0.684, "unit": "µM"}, {"measurement": "IC50", "setting": "[2]", "result": 0.603, "unit": "µM"}, {"measurement": "IC50", "setting": "[3]", "result": 0.542, "unit": "µM"}, {"measurement": "IC50", "setting": "[4]", "result": 1.41, "unit": "µM"}]}
{"smiles": "CCN1CCC(c2ccccc2)=C(C(=O)OCCC2CCCCC2)C1", "values": [{"measurement": "IC50", "setting": "[1]", "result": 0.115, "unit": "µM"}, {"measurement": "IC50", "setting": "[2]", "result": 0.0562, "unit": "µM"}, {"measurement": "IC50", "setting": "[3]", "result": 0.238, "unit": "µM"}, {"measurement": "IC50", "setting": "[4]", "result": 0.135, "unit": "µM"}]}
{"smiles": "CCOC(=O)C1CN(CC)CC=C1c1ccccc1", "note": "(stereo not drawn)", "values": [{"measurement": "IC50", "setting": "[1]", "result": 6.87, "unit": "µM"}, {"measurement": "IC50", "setting": "[2]", "result": 4.17, "unit": "µM"}, {"measurement": "IC50", "setting": "[3]", "result": 2.76, "unit": "µM"}, {"measurement": "IC50", "setting": "[4]", "result": 10.4, "unit": "µM"}]}
{"smiles": "CCN1CC=C(c2ccccc2)C(C(=O)OCCC2CCCCC2)C1", "note": "(stereo not drawn)", "values": [{"measurement": "IC50", "setting": "[1]", "result": 0.53, "unit": "µM"}, {"measurement": "IC50", "setting": "[2]", "result": 0.159, "unit": "µM"}, {"measurement": "IC50", "setting": "[3]", "result": 1.94, "unit": "µM"}, {"measurement": "IC50", "setting": "[4]", "result": 0.836, "unit": "µM"}]}
{"smiles": "CCCCCCCCCOC(=O)C1CN(CC)CC=C1c1ccccc1", "note": "(stereo not drawn)", "values": [{"measurement": "IC50", "setting": "[1]", "result": 1.6, "unit": "µM"}, {"measurement": "IC50", "setting": "[2]", "result": 0.329, "unit": "µM"}, {"measurement": "IC50", "setting": "[3]", "result": 0.486, "unit": "µM"}, {"measurement": "IC50", "setting": "[4]", "result": 1.58, "unit": "µM"}]}
{"smiles": "CCCCCCCCCOC(=O)C1=C(c2ccccc2)CCN(CC)C1", "values": [{"measurement": "IC50", "setting": "[1]", "result": 0.202, "unit": "µM"}, {"measurement": "IC50", "setting": "[2]", "result": 0.0854, "unit": "µM"}, {"measurement": "IC50", "setting": "[3]", "result": 0.0222, "unit": "µM"}, {"measurement": "IC50", "setting": "[4]", "result": 0.282, "unit": "µM"}]}
{"smiles": "CCCCCCCOC(=O)C1CN(CC)CC=C1c1ccccc1", "note": "(stereo not drawn)", "values": [{"measurement": "IC50", "setting": "[1]", "result": 1.1, "unit": "µM"}, {"measurement": "IC50", "setting": "[2]", "result": 0.537, "unit": "µM"}, {"measurement": "IC50", "setting": "[4]", "result": 2.2, "unit": "µM"}]}
{"smiles": "CCCOC(=O)C1CN(CC)CC=C1c1ccccc1", "note": "(stereo not drawn)", "values": [{"measurement": "IC50", "setting": "[1]", "result": 2.31, "unit": "µM"}, {"measurement": "IC50", "setting": "[2]", "result": 1.13, "unit": "µM"}, {"measurement": "IC50", "setting": "[3]", "result": 1.67, "unit": "µM"}, {"measurement": "IC50", "setting": "[4]", "result": 3.79, "unit": "µM"}]}
{"smiles": "CCN1CC[C@@H](c2ccccc2)[C@H](C(=O)OCCc2ccccc2)C1", "values": [{"measurement": "IC50", "setting": "[1]", "result": 0.315, "unit": "µM"}, {"measurement": "IC50", "setting": "[2]", "result": 0.0968, "unit": "µM"}, {"measurement": "IC50", "setting": "[3]", "result": 0.357, "unit": "µM"}, {"measurement": "IC50", "setting": "[4]", "result": 0.145, "unit": "µM"}]}
{"smiles": "CCN1CC[C@@H](c2ccccc2)[C@H](C(=O)OC2CCCCC2)C1", "values": [{"measurement": "IC50", "setting": "[1]", "result": 4.51, "unit": "µM"}, {"measurement": "IC50", "setting": "[2]", "result": 2.97, "unit": "µM"}, {"measurement": "IC50", "setting": "[3]", "result": 4.1, "unit": "µM"}, {"measurement": "IC50", "setting": "[4]", "result": 7.9, "unit": "µM"}]}
{"smiles": "CCCCOC(=O)C1=C(c2ccccc2)CCN(CC)C1", "values": [{"measurement": "IC50", "setting": "[1]", "result": 0.536, "unit": "µM"}, {"measurement": "IC50", "setting": "[2]", "result": 0.255, "unit": "µM"}, {"measurement": "IC50", "setting": "[3]", "result": 1.87, "unit": "µM"}, {"measurement": "IC50", "setting": "[4]", "result": 0.524, "unit": "µM"}]}
{"smiles": "CCN1CCC(c2ccccc2)=C(C(=O)OCCCCCc2ccccc2)C1", "values": [{"measurement": "IC50", "setting": "[1]", "result": 0.448, "unit": "µM"}, {"measurement": "IC50", "setting": "[2]", "result": 0.472, "unit": "µM"}, {"measurement": "IC50", "setting": "[3]", "result": 0.121, "unit": "µM"}, {"measurement": "IC50", "setting": "[4]", "result": 0.951, "unit": "µM"}]}
{"smiles": "CCCCOC(=O)C1CN(CC)CC=C1c1ccccc1", "note": "(stereo not drawn)", "values": [{"measurement": "IC50", "setting": "[1]", "result": 0.29, "unit": "µM"}, {"measurement": "IC50", "setting": "[2]", "result": 0.265, "unit": "µM"}, {"measurement": "IC50", "setting": "[3]", "result": 0.471, "unit": "µM"}, {"measurement": "IC50", "setting": "[4]", "result": 0.656, "unit": "µM"}]}
{"smiles": "CCOC(=O)C1=C(c2ccccc2)CCN(CC)C1", "values": [{"measurement": "IC50", "setting": "[1]", "result": 1.69, "unit": "µM"}, {"measurement": "IC50", "setting": "[2]", "result": 1.33, "unit": "µM"}, {"measurement": "IC50", "setting": "[3]", "result": 0.395, "unit": "µM"}, {"measurement": "IC50", "setting": "[4]", "result": 3.23, "unit": "µM"}]}
{"smiles": "CCCCCc1noc(C2CN(CC)CC=C2c2ccccc2)n1", "note": "(stereo not drawn)", "values": [{"measurement": "IC50", "setting": "[1]", "result": 6.71, "unit": "µM"}, {"measurement": "IC50", "setting": "[2]", "result": 2.08, "unit": "µM"}, {"measurement": "IC50", "setting": "[3]", "result": 10.8, "unit": "µM"}, {"measurement": "IC50", "setting": "[4]", "result": 63.3, "unit": "µM"}]}
{"smiles": "CCN1CC=C(c2ccccc2)C(C(=O)OCCCCCc2ccccc2)C1", "note": "(stereo not drawn)", "values": [{"measurement": "IC50", "setting": "[1]", "result": 2.05, "unit": "µM"}, {"measurement": "IC50", "setting": "[2]", "result": 1.57, "unit": "µM"}, {"measurement": "IC50", "setting": "[3]", "result": 0.661, "unit": "µM"}, {"measurement": "IC50", "setting": "[4]", "result": 2.39, "unit": "µM"}]}
{"smiles": "CCN1CC[C@@H](c2ccccc2)[C@@H](C(=O)OCCc2ccccc2)C1", "values": [{"measurement": "IC50", "setting": "[1]", "result": 3.18, "unit": "µM"}, {"measurement": "IC50", "setting": "[2]", "result": 4.26, "unit": "µM"}, {"measurement": "IC50", "setting": "[3]", "result": 4.5, "unit": "µM"}, {"measurement": "IC50", "setting": "[4]", "result": 8.12, "unit": "µM"}]}
{"smiles": "CCCCCCCOC(=O)C1=C(c2ccccc2)CCN(CC)C1", "values": [{"measurement": "IC50", "setting": "[1]", "result": 0.163, "unit": "µM"}, {"measurement": "IC50", "setting": "[2]", "result": 0.194, "unit": "µM"}, {"measurement": "IC50", "setting": "[4]", "result": 0.617, "unit": "µM"}]}
{"smiles": "CCCCCc1noc(C2=C(c3ccccc3)CCN(CC)C2)n1", "values": [{"measurement": "IC50", "setting": "[1]", "result": 1.93, "unit": "µM"}, {"measurement": "IC50", "setting": "[2]", "result": 1.47, "unit": "µM"}, {"measurement": "IC50", "setting": "[3]", "result": 1.22, "unit": "µM"}, {"measurement": "IC50", "setting": "[4]", "result": 8.39, "unit": "µM"}]}
